The results in this text go back to PubChem BioAssay AID488969 (Vanderbilt High Throughput Screening Facility, 2010).

SMILES strings stand for the structures. Over roughly 110,000 compounds, “z-score” has its median near -0.1; the highest 2% begin near 2. This is one part of the list. Calls of active or inactive are those of the source.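 How the source made its calls: active means z-score in the third read window above 3 or below -3; inactive means the rest.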

The target in the experiment is Metabotropic glutamate receptor 8 (Rattus norvegicus) (UniProt P70579). Put plainly: rat mGluR8 modulators via GIRK flux, primary screen, cell-based, thallium flux, HTS (AID 488969). Conditions: HEK293 rat mGluR8, GIRK (G protein-gated inwardly rectifying potassium channel) thallium flux, FluoZin2; at 10 µM; stronger effect = higher value; submaximal glutamate (EC20) added with thallium.
Sequence of UniProt P70579 (P70579 whole entry, looked up): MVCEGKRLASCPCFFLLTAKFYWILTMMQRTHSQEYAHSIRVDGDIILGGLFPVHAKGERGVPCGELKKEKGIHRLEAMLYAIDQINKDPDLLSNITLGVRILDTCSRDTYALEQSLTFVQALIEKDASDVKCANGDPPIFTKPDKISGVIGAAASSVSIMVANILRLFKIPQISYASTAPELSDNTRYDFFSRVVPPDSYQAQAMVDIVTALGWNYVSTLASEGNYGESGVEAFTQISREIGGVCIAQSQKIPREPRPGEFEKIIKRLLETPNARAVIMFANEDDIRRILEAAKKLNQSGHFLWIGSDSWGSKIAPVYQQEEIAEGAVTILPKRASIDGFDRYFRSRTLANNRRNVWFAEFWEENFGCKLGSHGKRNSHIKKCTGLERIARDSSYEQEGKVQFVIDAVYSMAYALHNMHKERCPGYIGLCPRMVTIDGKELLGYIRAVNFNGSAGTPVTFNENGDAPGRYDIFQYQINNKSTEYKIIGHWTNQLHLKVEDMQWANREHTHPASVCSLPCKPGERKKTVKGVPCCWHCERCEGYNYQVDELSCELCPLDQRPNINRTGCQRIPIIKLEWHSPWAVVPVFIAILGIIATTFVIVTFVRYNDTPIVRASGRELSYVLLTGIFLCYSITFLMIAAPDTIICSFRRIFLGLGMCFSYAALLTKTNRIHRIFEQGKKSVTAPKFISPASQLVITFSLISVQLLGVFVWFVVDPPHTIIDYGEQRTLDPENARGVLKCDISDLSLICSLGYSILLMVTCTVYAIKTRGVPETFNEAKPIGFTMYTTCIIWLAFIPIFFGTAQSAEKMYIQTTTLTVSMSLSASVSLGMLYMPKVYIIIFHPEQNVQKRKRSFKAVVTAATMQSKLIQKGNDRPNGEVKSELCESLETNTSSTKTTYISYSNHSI
With `Cn1ncc(Br)c1C(=O)N/N=C/c1cccc(OC2CSC2)c1`, the z-score is -0.309.

With `CC(=O)Nc1ccccc1C(=O)C(=O)O`, the z-score is -0.274.

`Cn1c(=O)c2ncn(CC(=O)NCCC3=CCCCC3)c2n(C)c1=O`: the z-score turned out to be 0.0139.

In turn, `CCC(=O)Nc1ccc(Cl)c(NC(=S)NC(=O)c2cc3ccccc3o2)c1` had a z-score of 0.019.

On to `CCc1ccc(N(C(C)=O)C2C=CS(=O)(=O)C2)cc1` (centres undefined), for which the z-score is -0.0323.

For `COc1ccc(N2C(=O)C3CCCN3C2c2cccc(OC)c2OC)cc1` (centres undefined), the z-score was -0.15.

For `C=CCC(NCc1ccccc1)c1ccco1` (centres undefined), the z-score came out at 2.42.

In the case of `CCc1nc(SCC(=O)c2ccc(C)c(C)c2)n[nH]1`, the z-score is -0.453.

`Cn1nc(-c2ccc(C(=O)Nc3cccnc3)cc2)c2ccccc2c1=O`: the z-score is -0.154.

For `Cc1ccc(C)c(NC(=O)CN(C)S(=O)(=O)c2ccccc2)c1`, the z-score is -0.409.

For the compound `O=C(c1cccc(S(=O)(=O)N2CCCC2)c1)N1CCN(c2ncccn2)CC1`, the z-score worked out at 0.0725.

Turning to `CCOP(=O)(OCC)C(NC(=O)Nc1ccc(Cl)cc1)C(=O)N(CC)CC` (centres undefined), the z-score is -0.672.

Turning to `CN(C)c1ccc(C(C(=O)NC(C)(C)C)N(C(=O)c2csnn2)C2CC2)cc1` (centres undefined), the z-score worked out at 0.816.

For `O=C(CN1CCC(O)(c2ccc3c(c2)OCO3)CC1)N1CCOCC1`, the z-score came out at 0.605.

For `O=C(Nc1cccc2ncccc12)c1ccc(-c2ccc(Cl)cc2Cl)o1`, the z-score is -0.128.

Consider `CCOC(=O)C(C)(C)N(Cc1cccc(C)c1)S(=O)(=O)c1cccc([N+](=O)[O-])c1`, for which the z-score was -0.287.

For the compound `COc1ccc(C2CC(c3ccccc3)=NN2C(=O)COC(=O)c2cccc(S(=O)(=O)N(C)C)c2)cc1` (centres undefined), the z-score is -0.697.

Take `NC(=O)C1(N2CCCCC2)CCN(C(=O)c2ccc(-n3cnnn3)cc2)CC1`: the z-score was found to be 0.237.

In the case of `COc1ccc(Cn2c(-c3ccc(C)cc3)c[n+]3ccccc23)cc1`, the z-score is 0.00664.

With `CCn1cc(C(=O)NCc2ccc3c(c2)OCO3)c(=O)c2cc(S(=O)(=O)N3CCOCC3)ccc21`, the z-score was -0.791.

As to `Cc1ccc(O)c(NC(=O)COc2cc(C)ccc2C)c1`, the z-score is 0.383.

Turning to `O=C(CSc1ccc(Cl)cc1)Nc1cc(-c2nc3ncccc3o2)ccc1Cl`, the z-score was -0.0513.

As to `Cc1ccc(-c2nc3ccccc3n3nnnc23)cc1`, the z-score is -0.162.

Regarding `CC(C)(C)c1ccc(OC(=O)c2cccnc2)cc1`, the z-score is -0.0737.

For `O=C(COC(=O)CNC(=O)c1ccc(Cl)cc1)Nc1ccc(Cl)cc1C(F)(F)F`, the z-score is -1.14.

As for `COc1ccc(/C=C/c2ccncc2)c2ccccc12`, the z-score was -0.236.

As for `O=C(Cc1cccs1)Nc1ccc(NC(=O)c2ccco2)cc1`, the z-score was -0.0243.

Consider `CN1CCN(S(=O)(=O)c2ccc(SCCOc3ccccc3)nc2)CC1`, for which the z-score worked out at 0.745.

Turning to `CCc1nnc(NC(=O)CCC(=O)Nc2ccccc2)s1`, the z-score is -0.0312.

As to `Cc1ccc(C(=O)N/C(=C\c2cccs2)C(=O)NCC2CCCO2)cc1C` (centres undefined), the z-score was -0.226.

As for `O=c1[nH]c2cc3c(cc2cc1CN(Cc1cccnc1)Cc1nnnn1Cc1ccco1)OCCO3`, the z-score is -0.00904.

Take `CCOC(=O)N1CCN(C(=O)CSCc2ccccc2C)CC1`: the z-score is -0.152.

Consider `COc1cc(OC)cc(-c2cc3nc(C4CCN(C(=O)OC(C)(C)C)CC4)cc(=O)n3[nH]2)c1`, for which the z-score was found to be 1.15.

`Cc1cc(N2CCN(S(=O)(=O)c3ccccc3)CC2)c2ccccc2n1` displayed a z-score of 0.244.

`CCCCSc1nc(CCC)cc(=O)[nH]1`: the z-score was -0.641.

As to `O=C(CN1C(=O)NC(Cc2ccccc2)C1=O)NC(=O)NC1CCCCC1` (centres undefined), the z-score was -0.215.

Consider `CS(=O)(=O)Nc1ccc(C(=O)Nc2ccc3c(c2)OCCO3)cc1`, for which the z-score is -0.17.

`COC(=O)/C=C1/S/C(=N/N=C/c2ccc(N(C)C)cc2)NC1=O` registered a z-score of 0.494.

Consider `NC(=O)c1c(NC(=O)c2ccccc2)sc2c1CCc1ccccc1-2`, for which the z-score was -0.173.

For `COc1ccccc1C(=O)Nc1ccc2c(c1)nc(CCNC(C)=O)n2C`, the z-score was -0.141.

In turn, `O=C(CSc1ccc2nnc(-c3ccc(F)cc3)n2n1)N1CCOCC1` came in with a z-score of 0.672.

In turn, `c1ccc(-n2nnnc2Sc2n[nH]c(-c3ccncc3)n2)cc1` gave a z-score of 0.714.

`O=C1C2C3C=CC(C3)C2C(=O)N1CCN1CCN(S(=O)(=O)c2ccc3ccccc3c2)CC1` (centres undefined) came in with a z-score of 0.0243.

Turning to `CC1(C)CC(=O)C2=C(C1)OC(N)=C(C#N)C2c1ccc(OC(=O)N2CCOCC2)cc1` (centres undefined), the z-score was -0.0642.

As for `CN(C(=O)COC(=O)CNC(=O)C12CC3CC(CC(C3)C1)C2)C1CCS(=O)(=O)C1` (centres undefined), the z-score was -0.182.

As to `CCOC(=O)c1c(C)nc2c(c1-c1ccc(OC)cc1)C(=O)CC(C)(C)C2`, the z-score was -0.379.

Take `Cc1cc(Cl)c(S(=O)(=O)Nc2ccc3c(c2)OCO3)cc1OCC(=O)NC1CCCCC1`: the z-score was -0.417.

Take `Cc1cc(S(=O)(=O)n2cnc3ccccc32)c(C)cc1Cl`: the z-score is -0.163.

Regarding `COc1cc(NC(=O)c2cccs2)c(C(=O)OCC(=O)c2cc(C)n(-c3ccc(F)cc3)c2C)cc1OC`, the z-score was -0.037.

As for `Cc1ccnc(NS(=O)(=O)c2ccc(Oc3ccccc3)cc2)c1`, the z-score is -0.165.

`CC1Cc2ccccc2N1C(=O)CN1C(=O)NC(C)(c2ccc3c(c2)OCCO3)C1=O` (centres undefined): the z-score is -0.178.

As for `CC1CCc2c(sc(NC(=O)c3ccc(Cn4cc(Br)cn4)o3)c2C(N)=O)C1` (centres undefined), the z-score is -0.188.

In the case of `O=C(CSc1nnc(Cc2ccc3c(c2)OCO3)n1C1CCCCC1)NC1CCCC1`, the z-score was -0.316.

As for `CN(Cc1ccccc1)C(=O)CNC(=O)Cn1cnc2ccccc2c1=O`, the z-score was -0.137.

On to `O=C(Nc1ccc(NC(=O)C2CC2)nc1)c1ccccn1`, for which the z-score is -1.64.

With `CCOC(=O)N1CCC(N2C(=O)c3ccc(C(=O)NCc4ccco4)cc3C2=O)CC1`, the z-score is -0.36.

As to `CCc1c(C)nc2ncnn2c1NCCc1ccccc1`, the z-score was -0.282.

With `CCCSc1nc(C)c2cc(C)cc(C)c2n1`, the z-score is -0.0794.

For the compound `Cc1nc2c(oc3ccccc32)c(=O)o1`, the z-score is 0.481.

Compound `CS(=O)(=O)N(CC(=O)NCCSc1ccccc1)c1ccc2c(c1)OCO2` showed a z-score of 1.46.

`COc1ccccc1-c1nnc(NC(=O)C2=COCCO2)o1` showed a z-score of 0.276.

For `COC(=O)c1cc2ccccc2c(=O)s1`, the z-score is -0.511.

As to `CC(C)(C)N=C1SCC(C)(/C=N/O)S1` (centres undefined), the z-score was found to be 0.201.

As for `O=C(CSc1nnc(-c2c[nH]c3ccccc23)n1-c1ccc(F)cc1)NCc1ccco1`, the z-score was active: -3.61.

For `O=C1CCCN1CCC1CCN(C(=O)Nc2ccccc2)CC1`, the z-score is -0.102.

For `CCOC(=O)c1ccc(-n2ncc(C(=O)OCC)c2N)cc1`, the z-score is -0.121.

Compound `Cc1ccc(NC(=S)NCc2cccn2C)cc1` registered a z-score of 0.349.

Regarding `S=C(NCc1ccc(Cl)cc1Cl)Nc1ccccc1`, the z-score was active: 3.34.

On to `CNC(=O)c1nn(-c2ccc(Cl)cc2)ccc1=O`, for which the z-score is -0.0128.

For `COc1ccc(NC(=O)CN2CCN(CC(=O)Nc3ccccc3Cl)CC2)cc1Cl`, the z-score was -1.41.

Compound `CCCN1C(=O)SC(CC(=O)Nc2cccc3ccccc23)C1=O` (centres undefined) showed a z-score of 0.304.

Regarding `CCN(CC)C(=O)Cn1nc(C)c2ccccc2c1=O`, the z-score was -0.346.

As for `CCNC(=O)CSc1nnc(-c2ccccc2Br)n1-c1cccc(C(F)(F)F)c1`, the z-score is -0.376.

Consider `CCOC(=O)c1cnc2ccc(C)cc2c1Sc1ccccc1C(=O)OC`, for which the z-score was -0.78.

As for `CCCCNC(=S)NNC(=O)C12CC3CC(CC(C3)C1)C2`, the z-score was -0.391.

As to `CC1=C(C(=O)OC(C)C)C(c2cccnc2)C2=C(CC(C)(C)CC2=O)N1` (centres undefined), the z-score was -0.185.

In the case of `O=C(NCC1CCCO1)C1CCC(CNS(=O)(=O)c2ccccc2)CC1` (centres undefined), the z-score is -0.111.

In the case of `CN(C)C(=O)/C(=C\c1cccc(Oc2ccccc2)c1)NC(=O)c1ccccc1`, the z-score is 0.438.

Consider `CCOC(=O)C1C(=O)NC(c2ccccc2)=NC1c1ccccc1` (centres undefined), for which the z-score was -0.0399.

In the case of `COc1ccc(-n2nnnc2SCC(=O)NCCc2ccc(OC)c(OC)c2)cc1`, the z-score amounted to 0.0743.

Regarding `COc1cc(/C=C2\S/C(=N/S(=O)(=O)c3ccc(C)cc3)NC2=O)c([N+](=O)[O-])cc1OC`, the z-score was active: -4.

In the case of `CCOC(=O)c1ccc(S(=O)(=O)N2CCN(C)CC2)cc1`, the z-score was -0.0673.

Turning to `Cc1ccc(OC(C)C)c(CN(CCO)CCO)c1`, the z-score is -0.396.

For the compound `CCOc1ccc(CCNC(=O)CCN2C(=O)COc3ccccc32)cc1OCC`, the z-score was -0.467.

On to `COc1cnn(-c2ccccc2)c(=O)c1N(C)C`, for which the z-score is -0.0974.

Turning to `O=C(Nc1ccc2c(c1)OCO2)c1ccc(N2C(=O)c3ccccc3C2=O)cc1`, the z-score is -0.161.

In the case of `O=C(CSc1nnc(-c2cccnc2)n1-c1ccccc1)Nc1ccccn1`, the z-score was -0.00451.

Turning to `Cc1ccc(Nc2nnc(SCc3cc(=O)n4cc(C)ccc4n3)s2)cc1`, the z-score is -1.62.

As to `Cc1cc2c3c(ccc(C)c3n1)N=CN2c1ccccc1`, the z-score was -1.13.

The compound `CCC(C(=O)Nc1ncn[nH]1)(C(F)(F)F)C(F)(F)F` displayed a z-score of 0.801.

In turn, `Cc1ccc(C)c(N2CCN(CCCNC(=O)Cn3cc4c(n3)CCC(C)C4)CC2)c1` (centres undefined) returned a z-score of 1.12.

Consider `CCC(C)C(=O)Nc1nc(C)c(-c2csc(Nc3cc(Cl)ccc3OC)n2)s1` (centres undefined), for which the z-score was -0.145.

For `CCOC(=O)CN(C(=O)CCC(=O)Nc1cc(C)on1)C(C(=O)NC1CCCC1)c1cccnc1` (centres undefined), the z-score came out at 0.98.

In the case of `COc1ccc(C(C)=O)cc1COC(=O)c1cnc(C)cn1`, the z-score was -0.416.

With `COc1ccc(C(=O)NCC(=O)NCC2(N(C)C)CCCCC2)cc1OC`, the z-score is 0.0259.

`COC(=O)[C@@H]1[C@@H](C#N)C2(c3ccccc3-c3ccccc32)N(c2ccc(Cl)cc2)N1C#N`: the z-score was -0.00814.

For the compound `COc1ccc(NC(=O)CSc2ccccn2)cc1`, the z-score is -0.252.

Take `CN(C)C(CNS(=O)(=O)c1ccc(Cl)cc1)c1cccnc1` (centres undefined): the z-score was -0.0299.

Regarding `COc1ccc(N/N=C(/Oc2ccc([N+](=O)[O-])cc2)C(C)=O)cc1`, the z-score was -0.706.

For `Cc1ccccc1NC(=O)Cc1ccccc1`, the z-score is -0.647.

`CCOC(=O)c1ccc(NC(=S)N2CCSC2c2ccc(Cl)cc2)cc1` (centres undefined) yielded a z-score of 0.0748.

On to `COc1ccc(N2CCN(Cc3nc4c(c(=O)n(C)c(=O)n4C)n3CC(C)=O)CC2)cc1`, for which the z-score is 0.0804.

With `COc1cccc(C(C)NC(=O)c2c(F)cccc2Cl)c1` (centres undefined), the z-score worked out at 0.339.

Compound `CCN(CC)C(=O)CSc1ncnc2c(-c3cccs3)nsc12` had a z-score of 0.226.

Consider `CCOc1ccc(Cn2nnc(C(=O)Nc3cc(C)cc(C)c3)c2N)cc1`, for which the z-score is -0.0123.

`NC(=O)CSc1nc2ccccc2n1-c1ccccc1`: the z-score turned out to be 0.2.

On to `CCCCN(CC)C(=O)Cn1ncc2c1-c1cc(C)ccc1OC2`, for which the z-score was -0.807.

`COC(CNC(=O)c1cc(C)nn1-c1ccccc1)OC` displayed a z-score of 0.0295.

Take `CCOC(=O)c1ccc(NC=C2C(=O)OC3(CCCCC3)OC2=O)cc1`: the z-score is -0.448.
